In all, about 410,000 compounds went through this assay and about 5,000 (1.2%) were called active. Inconclusive means that the source gave no clear call. Such entries were picked first, then a sample of the others. Calls follow the shape of the dose curve; as a rule, active = well fitted inhibition curve with a large enough effect; inconclusive = small, poorly fitted or top-dose-only effect; inactive = no such curve, though single readings can be large or run the other way. Where the call is inconclusive, the potency comes from a doubtful curve fit.
assay: qHTS for Inhibitors of TGF-b; conditions: HepG2 CAGA-GFP TGF-b/SMAD3 reporter, GFP fluorescence, 18 h, TGF-beta stimulated, 500 pg/mL final; series mostly up to 46.1 µM; activity, negative = inhibition: at the top concentration; also: nearly all actives have a fitted effect of over 65% in size
Method in brief: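 Inhibition was scored as loss of TGF-beta-induced (500 pg/mL final, 18 hours, 37 degrees C) GFP in HEPG2 cells carrying a CAGA-GFP reporter, in DMEM with 1% FBS. Well GFP was summed per cell; Activity was normalised to unstimulated and stimulated DMSO wells, then concentration-response fitting.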
% is scaled to controls: 0 for no effect and ±100 for the full control effect; potency is read from the fitted curve at half-maximal effect; tags tell the direction and shape of the fitted curve.

Question: With CCCCn1nc(NS(=O)(=O)c2cccc3nonc23)c2cc3cccc(C)c3nc21 as the compound, how does the Potency read?
Answer: The Potency was inconclusive: 7.94 µM [inhibitor, partial curve, poor fit].

Question: Which Potency does the source give for O=C(NCC(c1cccs1)N1CCOCC1)c1ccccc1NS(=O)(=O)c1ccc(Cl)c([N+](=O)[O-])c1 (stereo unspecified) here?
Answer: The Potency was inconclusive: 17.8 µM [inhibitor, single point].

Question: For O=C(COc1coc(CN2CCN(c3ccccc3F)CC2)cc1=O)NC1CCCC1, which “activity, negative = inhibition” value is on record?
Answer: Its value is inactive: -17%.

Question: For COc1ccc(C(=O)Nc2ccc3nc(SCC(=O)N4CCc5ccccc54)sc3c2)cc1, which “activity, negative = inhibition” value is on record?
Answer: The value was inactive: -0.718%.

Question: With Cc1ccc(/C=C/C(=O)N2CCN(c3cccc(C(F)(F)F)c3)CC2)cc1 as the compound, how does the “activity, negative = inhibition” value read?
Answer: The value was inactive: -18.2%.

Question: Which “activity, negative = inhibition” value does the source give for CC(=O)N1c2ccc(S(=O)(=O)N3CCCC3C(=O)NCc3ccc(Cl)cc3)cc2CC1C (stereo unspecified) here?
Answer: The value was inactive: -13.8%.

Question: With COc1ccc(-c2csc3ncnc(Nc4cccc(OC)c4)c23)cc1 as the compound, how does the Potency read?
Answer: Its Potency is inconclusive: 12.6 µM [inhibitor, single point].

Question: With O=C(CSc1nc2ccccc2c(=O)[nH]1)N1CCCCCC1 as the compound, how does the Potency read?
Answer: Its Potency is inconclusive: 14.1 µM [inhibitor, partial curve].

Question: Which “activity, negative = inhibition” value does the source give for CSc1cccc(NC(=O)Nc2ccccc2OCc2cc(=O)n3cc(C)ccc3n2)c1 here?
Answer: Its value is inactive: 2.89%.

Question: Which Potency does the source give for Cc1nn2c(SCC(=O)c3cccs3)cc(C(C)(C)C)nc2c1-c1ccccc1 here?
Answer: The Potency was inconclusive: 6.31 µM [inhibitor, single point].

Question: With COc1ccc([C@H]2/C=C\CN(C(=O)CC(C)(C)C)[C@@H](C)C(=O)N2Cc2ccc(F)cc2)cc1 as the compound, how does the Potency read?
Answer: The Potency was inconclusive: 12.6 µM [inhibitor, single point].

Question: Which Potency does the source give for CCOCCCNC(=O)c1ccc(-n2c(-c3ccccc3)cc3c2CCC(C)C3)cc1 (stereo unspecified) here?
Answer: Its Potency is inconclusive: 7.94 µM [inhibitor, partial curve, poor fit].

Question: For O=C(Nc1ccc(OC(F)(F)F)cc1)N1CCc2nc(NCc3cccc(Oc4ccccc4)c3)ncc2C1, which Potency is on record?
Answer: The Potency was inconclusive: 17.8 µM [inhibitor, single point].

Question: With CSc1nnc(-c2cc3c(-c4ccccc4)nn(C)c3s2)n1C as the compound, how does the Potency read?
Answer: Its Potency is inconclusive: 11.2 µM [inhibitor, single point].

Question: Which Potency does the source give for CCCc1ccc(O)c(N=Cc2cc(Br)cc(OCC)c2O)c1 here?
Answer: Its Potency is inconclusive: 11.2 µM [inhibitor, partial curve, poor fit].

Question: With Cc1cc(N/C=C/C(=O)c2ccccc2)ccc1Br as the compound, how does the “activity, negative = inhibition” value read?
Answer: The value was inactive: 0.822%.

Question: With COc1ccc(-n2c(=O)[nH]cc(C(=O)N3CCc4ccccc43)c2=O)cc1 as the compound, how does the Potency read?
Answer: Its Potency is inconclusive: 0.316 µM [inhibitor, full curve, poor fit].

Question: For Cc1cc(C)c2sc(NNC(=O)C3COc4ccccc4O3)nc2c1 (stereo unspecified), which Potency is on record?
Answer: Its Potency is inconclusive: 17.8 µM [inhibitor, single point].

Question: With Brc1ccc(-c2nnc(-c3ccccc3)o2)o1 as the compound, how does the Potency read?
Answer: Its Potency is inconclusive: 0.112 µM [inhibitor, full curve, poor fit].

Question: Which “activity, negative = inhibition” value does the source give for COc1cccc(N2CCN(Cc3cccnc3)CC2)c1 here?
Answer: The value was inactive: -3.1%.

Question: Which Potency does the source give for Cc1oc(-c2ccc(C(=O)NCc3ccccc3)cc2)nc1CN1CCc2ccccc21 here?
Answer: The Potency was inconclusive: 22.4 µM [inhibitor, single point].

Question: With CC(C)(C)OC(=O)N1CCCC(C(=O)Nc2cccc(C(=O)NC3CC3)c2)C1 (stereo unspecified) as the compound, how does the Potency read?
Answer: Its Potency is inconclusive: 6.31 µM [inhibitor, single point].

Question: Which Potency does the source give for Cc1ccc2c(=O)cc(C(=O)Nc3sc4c(c3C(=O)NCC3CCCO3)CCC4)oc2c1 (stereo unspecified) here?
Answer: Its Potency is inconclusive: 35.5 µM [inhibitor, single point].

Question: Which Potency does the source give for O=C(c1cc2ccccc2[nH]1)c1cc2cc(O)ccc2[nH]1 here?
Answer: The Potency was inconclusive: 35.5 µM [inhibitor, single point].

Question: With CCC(C(=O)NCc1ccccc1OC)n1nc(C)n2c(cc3occc32)c1=O (stereo unspecified) as the compound, how does the Potency read?
Answer: Its Potency is inconclusive: 11.2 µM [inhibitor, partial curve].

Question: For Cc1oc(-c2ccccc2Cl)nc1CS(=O)(=O)CC(=O)NCc1ccc(F)cc1, which Potency is on record?
Answer: Its Potency is inconclusive: 15.8 µM [inhibitor, single point].

Question: With COC(=O)c1sc2nc(CN3CCN(c4cccc(C(F)(F)F)c4)CC3)[nH]c(=O)c2c1C as the compound, how does the “activity, negative = inhibition” value read?
Answer: The value was inactive: -20.7%.

Question: For CN(C)c1c(Cl)cc(/C=C/c2ccnc3ccccc23)cc1Br, which Potency is on record?
Answer: The Potency was inconclusive: 35.5 µM [inhibitor, single point].

Question: Which Potency does the source give for Cc1cc(Nc2cccc(Cl)c2)nc2ccc(NC(=O)c3cncc(Br)c3)cc12 here?
Answer: Its Potency is inconclusive: 20 µM [inhibitor, partial curve, poor fit].

Question: With COc1ccccc1C(=O)N/C(N)=N/c1nc2ccccc2o1 as the compound, how does the Potency read?
Answer: The Potency was inconclusive: 11.2 µM [inhibitor, single point].

Question: Which Potency does the source give for Clc1cccc(CSc2nnc(-c3c[nH]c4ccccc34)o2)c1 here?
Answer: Its Potency is inconclusive: 35.5 µM [inhibitor, single point].

Question: With Cc1ccc2occ(/C=C/C(=O)O)c(=O)c2c1 as the compound, how does the Potency read?
Answer: The Potency was inconclusive: 12.6 µM [inhibitor, single point].

Question: For CCn1cc([N+](=O)[O-])c(C(=O)N2N=C(c3cccc4ccccc34)CC2c2ccccc2O)n1 (stereo unspecified), which Potency is on record?
Answer: The Potency was active: 12.6 µM.

Question: Which Potency does the source give for CCOC(=O)C1=C(CS(=O)(=O)c2ccc(F)c(C)c2)NC(=O)NC1c1ccccc1OC (stereo unspecified) here?
Answer: The Potency was inconclusive: 22.4 µM [inhibitor, single point].

Question: For CCNC(=S)N(Cc1ccc2c(c1)OCO2)C1CC(=O)N(c2ccc(F)cc2)C1=O (stereo unspecified), which Potency is on record?
Answer: Its Potency is inconclusive: 25.1 µM [inhibitor, single point].

Question: For CCOc1ccc(OCC)c(NC(=O)CN2CCN(c3cccc(C)c3C)CC2)c1, which “activity, negative = inhibition” value is on record?
Answer: The value was inactive: 6.26%.

Question: With Cc1nc(SCC(=O)Nc2cc(C(N)=O)cc(C(N)=O)c2)c2c(C)c(C)sc2n1 as the compound, how does the “activity, negative = inhibition” value read?
Answer: Its value is inactive: -0.397%.

Question: For COc1cc(CNC(=O)Nc2nc(C(N)c3ccccc3)cs2)cc(OC)c1OC (stereo unspecified), which “activity, negative = inhibition” value is on record?
Answer: The value was inactive: -19.3%.

Question: With COc1ccc(C(NC(=O)/C=C/c2ccco2)c2ccc(OC)c(OC)c2)cc1OC as the compound, how does the Potency read?
Answer: The Potency was inconclusive: 35.5 µM [inhibitor, single point].

Question: Which “activity, negative = inhibition” value does the source give for O=C(Cc1cccc(NC(=O)C2CCN(C(=O)C3CCC3)CC2)c1)Nc1cccc(C(=O)N2CCCC2)c1 here?
Answer: The value was inactive: -3.62%.

Question: For COc1ccc(C)cc1NC(=O)C1CCCN(c2ncnc3onc(C)c23)C1 (stereo unspecified), which Potency is on record?
Answer: The Potency was inconclusive: 17.8 µM [inhibitor, partial curve, poor fit].

— PubChem BioAssay AID588855 (National Center for Advancing Translational Sciences (NCATS), 2011)
